Experimental data as given in ChEMBL document CHEMBL1201862, “PubChem BioAssay data set” (2004).
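Test compounds were applied to cells in 96-well plates for 48 hours at 5 doses. GI50 is the concentration that inhibits growth by half.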 The source made the active and inactive calls. Rule as the data show it: active = GI50 up to about 1.1 µM and inactive = higher.

Columns and labels:
Assay in all cases: inhibition of tumour cell growth, NCI panel, 48 h
SN12C = tested on: SN12C
EKVX = tested on: EKVX
NCI-H226 = tested on: NCI-H226
HOP-92 = tested on: HOP-92
KM12 = tested on: KM12
SR = tested on: SR
LOX IMVI = tested on: LOX IMVI
BT-549 = tested on: BT-549
PC-3 = tested on: PC-3
OVCAR-3 = tested on: OVCAR-3
HCT-116 = tested on: HCT-116
UACC-257 = tested on: UACC-257
OVCAR-5 = tested on: OVCAR-5
SNB-75 = tested on: SNB-75
HCT-15 = tested on: HCT-15
U-251 = tested on: U-251
ACHN = tested on: ACHN
SNB-19 = tested on: SNB-19
MDA-N = tested on: MDA-N
COLO 205 = tested on: COLO 205
NCI/ADR-RES = tested on: NCI/ADR-RES
RPMI-8226 = tested on: RPMI-8226
HOP-62 = tested on: HOP-62
CCRF-CEM = tested on: CCRF-CEM
NCI-H460 = tested on: NCI-H460
A549 = tested on: A549
HL-60 = tested on: HL-60
UO-31 = tested on: UO-31
DU-145 = tested on: DU-145
SW-620 = tested on: SW-620
Malme-3M = tested on: Malme-3M
MDA-MB-231 = tested on: MDA-MB-231
MDA-MB-435 = tested on: MDA-MB-435
TK-10 = tested on: TK-10
OVCAR-4 = tested on: OVCAR-4
SF-268 = tested on: SF-268
IGROV-1 = tested on: IGROV-1
SK-MEL-28 = tested on: SK-MEL-28
HT-29 = tested on: HT-29
RXF 393 = tested on: RXF 393
SF-295 = tested on: SF-295
HCC 2998 = tested on: HCC 2998
A498 = tested on: A498
MOLT-4 = tested on: MOLT-4
OVCAR-8 = tested on: OVCAR-8
CAKI-1 = tested on: CAKI-1
NCI-H522 = tested on: NCI-H522
MCF7 = tested on: MCF7
SK-MEL-5 = tested on: SK-MEL-5
SF-539 = tested on: SF-539
K562 = tested on: K562
786-0 = tested on: 786-0
Hs-578T = tested on: Hs-578T

Cc1ccc2[nH]c3c(c2c1)CC(=O)Nc1ccccc1-3
GI50 (SN12C): inactive: > 100 µM
GI50 (EKVX): inactive: > 100 µM
GI50 (NCI-H226): inactive: > 100 µM
GI50 (HOP-92): inactive: > 100 µM
GI50 (KM12): inactive: > 100 µM
GI50 (SR): inactive: > 100 µM
GI50 (LOX IMVI): inactive: > 100 µM
GI50 (BT-549): inactive: > 100 µM
GI50 (PC-3): inactive: > 100 µM
GI50 (OVCAR-3): inactive: > 100 µM
GI50 (HCT-116): inactive: > 100 µM
GI50 (UACC-257): inactive: > 100 µM
GI50 (OVCAR-5): inactive: > 100 µM
GI50 (SNB-75): inactive: > 100 µM
GI50 (HCT-15): > 100 µM
GI50 (U-251): inactive: > 100 µM
GI50 (ACHN): inactive: > 100 µM
GI50 (SNB-19): inactive: > 100 µM
GI50 (MDA-N): inactive: > 100 µM
GI50 (COLO 205): inactive: > 100 µM
GI50 (NCI/ADR-RES): inactive: > 100 µM
GI50 (RPMI-8226): inactive: > 100 µM
GI50 (HOP-62): inactive: > 100 µM
GI50 (CCRF-CEM): inactive: > 100 µM
GI50 (NCI-H460): inactive: > 100 µM
GI50 (A549): inactive: 32.5 µM
GI50 (HL-60): inactive: > 100 µM
GI50 (UO-31): inactive: > 100 µM
GI50 (DU-145): inactive: > 100 µM
GI50 (SW-620): inactive: > 100 µM
GI50 (Malme-3M): inactive: > 100 µM
GI50 (MDA-MB-231): inactive: > 100 µM
GI50 (MDA-MB-435): inactive: > 100 µM
GI50 (TK-10): inactive: > 100 µM
GI50 (OVCAR-4): inactive: > 100 µM
GI50 (SF-268): inactive: > 100 µM
GI50 (IGROV-1): inactive: > 100 µM
GI50 (SK-MEL-28): inactive: > 100 µM
GI50 (HT-29): inactive: > 100 µM
GI50 (RXF 393): inactive: > 100 µM
GI50 (SF-295): inactive: > 100 µM
GI50 (HCC 2998): inactive: > 100 µM
GI50 (A498): inactive: > 100 µM
GI50 (MOLT-4): inactive: > 100 µM
GI50 (OVCAR-8): inactive: > 100 µM
GI50 (CAKI-1): inactive: > 100 µM
GI50 (NCI-H522): inactive: > 100 µM
GI50 (MCF7): inactive: > 100 µM
GI50 (SK-MEL-5): inactive: 5.87 µM
GI50 (SF-539): inactive: > 100 µM
GI50 (K562): inactive: > 100 µM
GI50 (786-0): inactive: > 100 µM
GI50 (Hs-578T): inactive: > 100 µM
